In PubChem BioAssay AID485344 (National Center for Advancing Translational Sciences (NCATS), 2010):
About 6,900 (2%) of roughly 340,000 compounds were called active. Rule as the data show it: active = inhibition above about 30%; inactive = below that, where a call was filed. The list shows a part of the results, in another mix than the full data. Where no call is shown, the source filed none.
Also: 0% is about no effect.

Each molecule was assayed against D(2) dopamine receptor (Homo sapiens) (UniProt P14416) (assay: HTS Assay for Allosteric Antagonists of the Human D2 Dopamine Receptor: Primary Screen for Antagonists). Conditions: HEK293 TREx D2 cells, calcium flux, dopamine EC80; at 10 µM; stronger effect = higher value.
Chain of UniProt P14416 (P14416 whole entry, looked up): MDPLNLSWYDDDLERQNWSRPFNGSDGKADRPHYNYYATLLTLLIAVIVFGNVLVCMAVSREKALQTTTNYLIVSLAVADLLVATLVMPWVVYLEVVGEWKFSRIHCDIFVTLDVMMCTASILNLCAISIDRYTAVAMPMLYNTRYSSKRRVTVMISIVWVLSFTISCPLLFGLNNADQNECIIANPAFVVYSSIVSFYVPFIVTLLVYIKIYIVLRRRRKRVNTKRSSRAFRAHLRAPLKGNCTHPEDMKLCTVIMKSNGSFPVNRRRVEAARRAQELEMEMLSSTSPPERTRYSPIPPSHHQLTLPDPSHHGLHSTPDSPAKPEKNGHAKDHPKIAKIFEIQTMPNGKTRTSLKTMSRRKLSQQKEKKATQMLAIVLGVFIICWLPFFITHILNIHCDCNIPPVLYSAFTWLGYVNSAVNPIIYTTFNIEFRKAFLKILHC
Procedure, shortened: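 Calcium flux kinetic readout in an inducible HEK293 TREx D2 line plated overnight at 30 C. After 180 s compound exposure, an EC80 dopamine challenge follows with another 180 s kinetic read to detect antagonism.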
Molecule `Cc1ccc(CNC(=O)Cn2ccn(-c3ccc(C)c(C)c3)c(=O)c2=O)cc1` has an inhibition of -5.8%. With `Cc1ccc(-n2nc3c(N4CCCC(C(=O)NCCc5ccccc5)C4)nnc(C)c3c2C)cc1` (stereo not given) the inhibition was -20.2%. Molecule `COc1cccc(C(=O)Nc2c(C(=O)NC(C)(C)C)oc3ccccc23)c1` has an inhibition of -3.89%. `Cc1ccc(CCNC(=O)Cn2c(-c3cccs3)cc3cc(F)ccc32)cc1` gave an inhibition of -14.3%. For `CCC1CCCCN1CCCNC(=O)CN1C(=O)CSc2ccc(S(=O)(=O)N3CCC(C)CC3)cc21` (stereo not given), the inhibition was -12.2%. `Cc1cc(C)c2oc(-c3cccc(NC(=O)c4ccco4)c3)nc2c1` showed an inhibition of -5.43%. `COCCCNC(=O)CCC(=O)N1Cc2ccccc2Oc2ncccc21` was tested, and the inhibition was 8.06%. `Cc1cc2c(c3oc(=O)c4ccccc4c13)CN(Cc1ccc(F)cc1)CO2` showed an inhibition of 4.19%. For `O=C(Nc1cccc(Cl)c1)Nc1ccccc1OCc1cc(=O)n2ccccc2n1`, the inhibition was 14.5%. `NC(N)=N/N=C/c1ccc(OS(=O)(=O)c2ccccc2)cc1` was tested, and the inhibition was active: 30.2%. For `CCOc1ccccc1NC(=O)c1sc(-n2nc(C)c(CCC(C)C)c2C)nc1C`, the inhibition was 4.07%. For `Cc1ccc(Cl)cc1N1CCN(C(=O)c2ccc3c(c2)N(Cc2ccccc2F)C(=O)c2ccccc2S3(=O)=O)CC1`, the inhibition was 1.79%. Work on `Cc1nc2c(C(=O)N(C)Cc3ccccc3)c[nH]n2c(=O)c1Cc1ccc(Cl)cc1` yielded an inhibition of 13.5%. `CCc1ccc(S(=O)(=O)Nc2ccc(-c3ccc(N4CCCCCC4)nn3)cc2)cc1` showed an inhibition of 5.97%. In the case of `O=C(NCc1ccccc1)c1nc(-c2cccs2)no1`, the inhibition is reported as active: 36.3%. `CC(=O)C1=C(c2ccc(Cl)c(Cl)c2)N(C(C)=O)n2c(C)nnc2S1` was tested, and the inhibition was 24.9%. With `CCS(=O)(=O)N1Cc2ccccc2CC1C(=O)Nc1cccc(OC)c1` (stereo not given) the inhibition was active: 34.4%. `CCCSCCCNC(=O)CN1C(=O)COc2ccc(S(=O)(=O)N3CCC(C)CC3)cc21` showed an inhibition of 4.6%. For `Cc1cccc(C)c1NC(=O)c1oc2c(c1C)-c1nn(Cc3ccccc3)cc1CC2`, the inhibition was -2.91%. Work on `CCN(CC)CCCNC(=O)Cn1nc(N2CCN(c3ccccc3OC)CC2)ccc1=O` yielded an inhibition of 5.9%. For `CN1C(=O)Cc2cc(S(=O)(=O)CCC(=O)Nc3ccccc3)ccc21`, the inhibition was 1.3%. `COc1cc(OC)c(N(C)C(=O)c2nn(C)c3c2CSc2ccccc2-3)cc1Cl` showed an inhibition of 17.6%. `COc1cccc(CNC(=O)c2cc(-c3cccc(OC)c3)n[nH]2)c1` gave an inhibition of 4.83%. `COc1cc(C(=O)Nc2cc(S(C)(=O)=O)ccc2Cl)ccc1OCC(=O)N1CCOCC1` was tested, and the inhibition was active: 35.6%. For `Cc1ccc(N2CCN(C(=O)CCc3c(C)nc4c(c3C)c(=O)n(C)c(=O)n4C)CC2)c(C)c1`, the inhibition was -13.9%. `O=C(CCn1cnc2ccccc2c1=O)NCc1ccccc1` showed an inhibition of -14.7%. Molecule `CCOc1ccc(N(C)S(=O)(=O)c2c(C(=O)N3CCC(C)CC3)c(C)n(C)c2C)cc1` has an inhibition of -1.1%. In the case of `COc1ccc(Cl)cc1NS(=O)(=O)c1cccc(C(=O)NCC(c2ccco2)N(C)C)c1` (stereo not given), the inhibition is reported as active: 60.4%. Work on `Cc1cccc(-n2ncc(C(=O)N3CCN(Cc4ccccc4)CC3)c2C2CCN(C(=O)OC(C)(C)C)CC2)c1` yielded an inhibition of 6.3%. Molecule `Cc1ccc(NC(=O)Cn2nnc3sc4c(c3c2=O)CCC(C)C4)cc1` (stereo not given) has an inhibition of -0.363%. `COc1ccc(Cn2c(CCC(=O)Nc3ccc(C)cc3)nc3cccnc32)cc1` gave an inhibition of 23.6%. In the case of `CCOc1ccccc1NC(=O)N1c2ccccc2Sc2ccccc21`, the inhibition is reported as -9.86%. For `Cc1cc(C)n(-c2nc3cc(Cl)ccc3nc2Nc2ccc(C)c(F)c2)n1`, the inhibition was -3.09%. `O=C1c2ccccc2C(O)N1Cc1cccs1` (stereo not given) was tested, and the inhibition was active: 46.8%. Work on `CCn1ccc2cc(S(=O)(=O)N3CCC(C(=O)NCc4cccc(Cl)c4)CC3)ccc21` yielded an inhibition of 12.4%. `CC(C)(C)c1ccc(OC(=O)N2CCOCC2)cc1` was tested, and the inhibition was active: 31.9%. For `Cc1cc(C)c(NC(=O)c2cc(S(=O)(=O)NCCC3=CCCCC3)ccc2F)c(C)c1`, the inhibition was -10.9%. `Cc1ccc(-n2ncc(C(=O)NCCN3CCCC3)c2C2CCN(C(=O)OC(C)(C)C)CC2)cc1` was tested, and the inhibition was 11.5%. In the case of `Cc1cccc(OCCCN2CCCCCC2)c1`, the inhibition is reported as active: 40.3%. Molecule `CCn1c(SCc2cccc(Br)c2)nnc1-c1nonc1NC(C)=O` has an inhibition of -9.01%. Molecule `CC(C)CNC(=O)C(=O)Nc1c2c(nn1-c1ccccc1)CS(=O)(=O)C2` has an inhibition of 5.67%. `CC(=O)Nc1cc(C(=O)NCc2ccc(C)cc2)ccc1S(=O)(=O)c1ccc(Cl)cc1` was tested, and the inhibition was 25.6%. `CCOC(=O)CN1C(C(=O)c2ccccc2)=C(OC(=O)C(C)(C)C)c2ccccc2S1(=O)=O` showed an inhibition of -14.9%. `CSc1cccc(NC(=O)Cn2c(=O)n(Cc3ccccc3)c(=O)c3sc4ccccc4c32)c1` was tested, and the inhibition was -8.33%. For `COCCCn1c(=N)c(C(=O)NCc2ccco2)cc2c(=O)n3cccc(C)c3nc21`, the inhibition was 1.58%. For `CCOC(=O)c1c(NC(=O)COc2ccc(Br)cc2)sc2c1CCCC2`, the inhibition was -3.55%. `CCc1ccccc1NC(=O)Nc1cc(C(=O)NCc2cccc(F)c2)ccc1N1CCCC1` gave an inhibition of 1.05%. With `CCc1ccc(S(=O)(=O)c2nnn3c2nc(Nc2ccc(C)c(Cl)c2)c2sccc23)cc1` the inhibition was -13.3%. Work on `O=C(Cn1ncn2nc(-c3cccs3)cc2c1=O)NCc1ccc(Cl)cc1` yielded an inhibition of 20.1%. `Cc1oc(-c2cccc(Cl)c2)nc1CN1CCCC(C(=O)NCCc2ccc(Cl)cc2)C1` (stereo not given) was tested, and the inhibition was 10.2%. Work on `COCCNC(=O)CCn1c(=O)c2cc(OC)c(OC)cc2n(CC(=O)Nc2ccccc2C)c1=O` yielded an inhibition of 1.26%. `CS(=O)(=O)NCC(c1ccco1)N1CCN(c2ccc(F)cc2)CC1` (stereo not given) gave an inhibition of -25.1%. In the case of `CCc1ccc(NC(=S)NC2CC3CCCC(C2)N3Cc2cccs2)cc1` (stereo not given), the inhibition is reported as active: 64.5%. `O=S(=O)(c1ccc(-c2cc(C(F)(F)F)on2)s1)N1CCN(c2ccccc2)CC1` gave an inhibition of 4.41%. Work on `CCOC(=O)c1cnc2c(Cl)cc(Cl)cc2c1Nc1cc(C(=O)O)ccc1C` yielded an inhibition of 1.1%. Work on `Cc1cccc(NC(=O)c2ccc3c(O)c(S(=O)(=O)c4ccccc4)c(=O)[nH]c3c2)c1C` yielded an inhibition of -1.27%. For `COc1ccc(C(=O)C(C)OC(=O)c2sc(C)nc2C)cc1` (stereo not given), the inhibition was active: 31%. In the case of `COc1ccc(Cl)cc1NC(=O)CSc1nc2ccccc2c2nc(-c3ccccc3)nn12`, the inhibition is reported as -4.49%. For `O=C(Nc1ccc2nc(SCC(=O)N3CCc4ccccc43)sc2c1)c1cccc(F)c1`, the inhibition was 14.4%. Molecule `Cc1ccccc1-c1nc(CS(=O)(=O)CC(=O)NCCc2ccccc2)c(C)o1` has an inhibition of -8.69%. `Cc1ccc(C(=O)N2CCc3cc(CNC(=O)c4ccc(Br)cc4)ccc32)cc1` gave an inhibition of -0.356%. `Cc1ccc(C(=O)Nc2ccccc2)cc1S(=O)(=O)Nc1ccc(Br)cc1` gave an inhibition of 8.62%. `CCOc1ccc2c(c1)sc1nc(=O)n(-c3ccc(Cl)c(Cl)c3)c(=O)n12` was tested, and the inhibition was -7%. Work on `Cc1ccc(OCc2nc(-c3ccc(C(=O)N4CCN(c5cccc(C(F)(F)F)c5)CC4)cc3)oc2C)cc1` yielded an inhibition of -1.32%. `CCOC(=O)CCn1cnc2onc(-c3cc(OC)ccc3Cl)c2c1=O` showed an inhibition of -10.3%. `COc1ccc(N(CC(C)C)S(=O)(=O)c2nnc(NC(=O)c3cccs3)s2)cc1` was tested, and the inhibition was -2.84%. Molecule `CSc1cccc(NC(=O)C2CCN(S(=O)(=O)c3ccc4c(c3)CCCN4C(=O)C3CCC3)CC2)c1` has an inhibition of 15.5%. Molecule `Cc1c(Cl)cccc1NC(=O)CNS(=O)(=O)c1cccs1` has an inhibition of 1.48%. Molecule `Cc1ccc(C2CCN(C(=O)Nc3ccc(Cl)cc3)C2)cc1` (stereo not given) has an inhibition of 10.3%. `Cc1cc(=O)[nH]c2nnc(SCc3c(F)cccc3Cl)n12` was tested, and the inhibition was 24.5%. Molecule `CCc1ccc(C2c3c(oc4ccc(F)cc4c3=O)C(=O)N2CCc2ccc(OC)cc2)cc1` (stereo not given) has an inhibition of -0.345%. For `COc1ccc(S(=O)(=O)NCCc2sc(-c3cccnc3)nc2C)c(F)c1`, the inhibition was -21.7%. Work on `CC1CCc2c(sc3nnn(CCCCOc4ccc(Cl)cc4)c(=O)c23)C1` (stereo not given) yielded an inhibition of 5.23%. In the case of `COc1ccc(CNCCCSc2nnnn2-c2ccccc2)cc1`, the inhibition is reported as -22.6%. Work on `COc1ccc(-c2cc(C(=O)NC(C)c3ccccc3)c3cc(C(C)C)ccc3n2)cc1` (stereo not given) yielded an inhibition of -4.52%. `CCOC(=O)c1c(NC(=O)c2cc(OCC)c(OCC)c(OCC)c2)sc2c1CCCCC2` showed an inhibition of 17.6%. `O=C(Nc1ccccc1C(F)(F)F)c1cc(-c2ccc3c(c2)OCCO3)on1` was tested, and the inhibition was -9.55%. `CCN(CC)CCNC(=O)C(=O)NCC(c1cccnc1)N1CCN(c2ccc(F)cc2)CC1` (stereo not given) gave an inhibition of 17.5%. `COc1cccc(CNC(=O)c2ccc(CNS(=O)(=O)c3ccc(C)cc3)cc2)c1` showed an inhibition of 9.97%. Molecule `O=C(Nc1ccccc1)N(Cc1c[nH]c2ccccc12)C1CCCCCC1` has an inhibition of 3.3%. In the case of `Cc1cccc(OCc2nc(CC(=O)Nc3ccc(C)cc3C)cs2)c1`, the inhibition is reported as -8.91%. With `CC1CCN(S(=O)(=O)c2cc(C(=O)NC3(C)CCS(=O)(=O)C3)ccc2Br)CC1` (stereo not given) the inhibition was active: 30.5%. Molecule `Cc1cccc(N2CCN(C(=O)c3cnn(-c4ccccc4Cl)c3C3CCN(C(=O)OC(C)(C)C)CC3)CC2C)c1` (stereo not given) has an inhibition of 1.95%. Molecule `CCOC(=O)c1c(S(=O)(=O)N2CCCC(C(=O)NCc3ccccc3Cl)C2)c(C)n(C)c1C` (stereo not given) has an inhibition of -6.74%. `CC(=O)Nc1cc2c(cc1C(=O)c1ccc(C)cc1)OCCO2` was tested, and the inhibition was active: 33.5%. `COc1cc(NC(=O)C2CCN(S(=O)(=O)c3ccc4c(c3)CCCC(=O)N4)CC2)cc(OC)c1` was tested, and the inhibition was -8.21%. For `CCOc1ccccc1NC(=O)CSc1nc2c(sc3ccccc32)c(=O)n1CCCC(=O)NC1CCCC1`, the inhibition was -21.6%. With `COc1ccc2cc3cc(C(=O)Nc4cc(C)c(Cl)cc4OC)oc3nc2c1` the inhibition was 5.46%. Molecule `CCc1cccc(CC)c1NC(=O)C1CCC(CNS(=O)(=O)c2cccc3nsnc23)CC1` (stereo not given) has an inhibition of 8.76%. `COc1ccc(NC(=O)CSc2oc(-c3ccc(F)cc3)nc2S(=O)(=O)c2ccc(C)cc2)c(OC)c1` gave an inhibition of -2.76%. For `CC(=O)c1cccc(NS(=O)(=O)c2cc(-c3onc(C)c3C)ccc2C)c1`, the inhibition was 0.741%. `O=C(NCC(c1cccnc1)N1CCOCC1)c1cccs1` (stereo not given) was tested, and the inhibition was active: 33.7%. For `CCOC(=O)C1CCN(CCCSc2ccc(Cl)cc2)CC1`, the inhibition was active: 46.1%. For `Cn1cc(CNCc2ccc(-n3cccn3)cc2)c(-c2ccccc2F)n1`, the inhibition was active: 44.2%. `COc1cc(Cl)c(NC(=O)c2cc(S(=O)(=O)N3CCCCC3)c[nH]2)c(OC)c1` was tested, and the inhibition was -1.45%.
